# Results from the supplement of paper PMC10338343.
# ± gives the standard deviation. Whole data set: some 3,700 sequences, median “pre-steady-state target cleavage rate” near 0.02, cut for the highest 2% near 0.23. Only a part is listed here, and it is no random draw.
# Test system: MILI (PIWIL2) piRISC loaded with Kctd7 piRNA (26 nt)
# Assay: pre-steady-state target cleavage rate (min^-1); MIWI and MILI are mouse PIWI proteins and EfPiwi is from a freshwater sponge; tags in brackets are library labels; higher = faster piRNA-guided slicing of the target
# Details: guide: Kctd7 piRNA 5'p-UGUUAAUCUCUCAGAGAAGGUGACAG; auxiliary factor: 500 nM mouse GTSF1
# In short: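 Sequencing of uncleaved targets, normalised to depth and to weakly complementary targets, was the readout of this Cleave-'n-Seq assay. A transcribed, DNA-blocked target RNA library (0.1 nM) was mixed with 1 nM active affinity-purified piRISC carrying one synthetic guide, with or without 500 nM GTSF1 partner protein, in HEPES–potassium acetate buffer at 33 °C for 0–8 or 0–960 min. Three trials were pooled, k3 was capped at 0.0001 min^-1, and a burst-and-steady-state fit gave the pre-steady-state cleavage rate.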
row,Sequence,pre-steady-state target cleavage rate
1,UAGUGUGUCACCUUCUCUGAGAGAUUACA,0.122 ± 0.036
2,UAGUGACAGACCUUCUCGAGAGAUUAACA,0.0146 ± 0.0074
3,UAGUGACUCACCUUGUCAGAGAGAUUAACA,0.038 ± 0.0074
4,UAGUCUGUCACCUCUCUGAGAGAUUAACA,0.208 ± 0.018
5,UAGUGAGUCACCUUGUCUGAGAGAUUAAGA,0.00881 ± 0.0052
6,UAGUGACAGACCUUGUCUGUGAGAUUAACA,0.0175 ± 0.0053
7,UAGUGUGUCAUCUUCUCUGAGAGAUUAACA,0.218 ± 0.019
8,UAGUGACAGUCAUUCUCUGAGAGAUUAACA,0.00865 ± 0.0029
9,UAGUGACAGUCCUUCUGUGAGAGAUUAACA,0.0294 ± 0.0049
10,UAGUGUGUCACCUUCUCUGAGAGGAUUAACA,0.15 ± 0.02
11,UAGUCUUGUCACCUUCUCUGAGAGAUUAACA,0.341 ± 0.058
12,UAGUGACACACCUUCUCUGAGAGAAUAACA,0.115 ± 0.025
13,UAGUGUGUGACCUUCUCUGAGAGAUUUACA,0.0991 ± 0.02
14,UAGUGAGUCACCUUCUCUCAGAGAUUAUCA,0.0215 ± 0.0076
15,UAGUCUGUCACCUUCUGUGAGAGAAUAACA,0.0497 ± 0.011
16,UAGUGACAGACCUACUCUGAGAGAUUAACA,0.0514 ± 0.0077
17,UAGUGACAGUCCUUCUCUGAGAGAUUAAGA,0.0116 ± 0.0043
18,UAGUGACUCACCUUCUCUAAGAGAUUAACA,0.12 ± 0.0099
19,UAGUGACACACCUUCUCUGUGACAUUAACA,0.0382 ± 0.012
20,UAGUGACUCACCUUCAGUGAGAGAUUAUGA,0.0132 ± 0.0042
21,UAGUCUGUGACCUUCUCUGAGACAUUAACA,0.0192 ± 0.0031
22,UAGUCUGUCACCAUCUCUGAGAGAUUAACA,0.173 ± 0.011
23,UAGUGACAGACCAUUCUCUGAGAGAUUAACA,0.0891 ± 0.012

row,Sequence,pre-steady-state target cleavage rate
1,UAGUGACACACCUUCUCUGAGAGAUUAAACA,0.197 ± 0.03
2,UAGUGAGUCACGUUCUCAGAGAGAUUAACA,0.0819 ± 0.0088
3,UAGUGACACACCGUUCUCUGAGAGAUUAACA,0.0968 ± 0.0086
4,UAGUCUGACACCUUCUCUGAGAGAUUAAGA,0.0746 ± 0.011
5,UAGUGACUCACCUUCUGCUGAGAGAUUAACA,0.0116 ± 0.0041
6,UAGUGAGUCACCUACUCUGAGAGAUUUACA,0.164 ± 0.053
7,UAGUCUGUCACCUUCUCUGAGAGAUCUAACA,0.258 ± 0.054
8,UAGUGUGUCACCAUCUCUGAGAGAUUAUCA,0.128 ± 0.024
9,UAGUGUGUCAACUUCUCUGAGAGAUUAACA,0.15 ± 0.013
10,UAGUUUGUCACCUUCUCUGAGAGAUUAACA,0.211 ± 0.018
11,UAGUGAGUCUGGUUCUCUGAGAGAUUAACA,0.0256 ± 0.0044
12,UAGUGACAGACCUUCUCUCAGAGAUUUACA,0.0156 ± 0.0069
13,UAGUGACAGUGGAAGUCUGAGAGAUUAGCA,< 0.0001
14,UAGUGAGUCACCUUGUCUGUGAGAUUAACA,0.0407 ± 0.0053
15,UAGUGACAGUGCAUCUCUGUGAGAUUAACA,0.00379 ± 0.0027
16,UAGUCUGUCACCAUCUCUGAGAGAUUAAGA,0.0701 ± 0.013
17,UAGUGACAGACGUUCUCUGAGAGUUUAACA,0.015 ± 0.0052
18,UAGUGACAGUCGCUUCUCUGAGAGAUUAACA,0.132 ± 0.0089
19,UAGUGACAGACCUUCUGAGAGAGAUUAUGA,0.00433 ± 0.0039
20,UAGUGACACACCUUCUCUGAGAGGAUUAACA,0.116 ± 0.015
21,UAGUGACAGUGCUUCUCUGAGAGAUCUAACA,0.00572 ± 0.0023
22,UAGUCUGUCACCUUCUCUGAUGAGAUUAACA,0.0218 ± 0.0062
23,UAGUGACACACCUUCUCUCAGAGAUUUACA,0.0404 ± 0.0093

row,Sequence,pre-steady-state target cleavage rate
1,UAGUGAGUCACCUACUCUGUGAGAUUAACA,0.0395 ± 0.0049
2,UAGUGACAGUCUUCUCUGAGAGAUUAACA,0.0515 ± 0.0067
3,UAGUGAGUCACCUACUCUGACAGAUUAACA,0.0577 ± 0.0088
4,UAGUGUGUCACGUUCUCUGAGAGUUUAACA,0.0921 ± 0.014
5,UAGUGACAGUCCUUCUCUGAGAGAUUUAACA,0.131 ± 0.016
6,UAGUGUGUCUCCUUCUCUGACAGAUUAACA,0.0515 ± 0.0065
7,UAGUGACACACGAUCUCUGAGAGAUUAAGA,0.0104 ± 0.0022
8,UAGUCUGUCACCUUCUCGAGAGAUUAACA,0.0771 ± 0.02
9,UAGUGACAGUCCUUCUCUUAGAGAUUAACA,0.0319 ± 0.0075
10,UAGUGUGUCACGUUCUCUGAGAGAUUAACA,0.146 ± 0.013
11,UAGUGACACAGCUUCACUGAGAGAUUAACA,0.0599 ± 0.0099
12,UAGUGACACACCUUCUGUGAGAGAUUAAGA,0.029 ± 0.012
13,UAGUGACAGUGGAUCUCUGAGAGAUUAAACA,< 0.0001
14,UAGUGACAGACCUUCUCUGAGAUGAUUAACA,0.0496 ± 0.0089
15,UAGUGACAGUGCUUCUCUGAGAGAUUACCA,0.00433 ± 0.0025
16,UAGUCUGUCACACUUCUCUGAGAGAUUAACA,0.115 ± 0.0068
17,UAGUGACAGACCUUCGUCUGAGAGAUUAACA,0.0103 ± 0.0038
18,UAGUGUGUCACCUUCUCUCAGAGAUUUACA,0.0482 ± 0.013
19,UAGUGUGUACACCUUCUCUGAGAGAUUAACA,0.184 ± 0.015
20,UAGUGUGUCUGCUUCUCUGAGAGAUUAUGA,0.0048 ± 0.0034
21,UAGUGACAGACCUACUCUGAGAGUUUAACA,0.0104 ± 0.0054
22,UAGUGACUCACCUACUCUGAGAGAAUAACA,0.0139 ± 0.0047
23,UAGUGACUCACCUUCUCUGAGAGAUUAGCA,0.146 ± 0.027

row,Sequence,pre-steady-state target cleavage rate
1,UAGUGAGUCACCUUCUCUGAGACUUUAACA,0.0515 ± 0.017
2,UAGUGUGUCACCUUCUCAGACAGAUUAACA,0.0415 ± 0.0083
3,UAGUCUGUCACCUUCUCUCACAGAUUAACA,0.0179 ± 0.0052
4,UAGUGUGUCACCUUCUCAGUGAGAUUAACA,0.0273 ± 0.004
5,UAGUGAGUCACCUUCUCUGAGAGAUCUAACA,0.171 ± 0.035
6,UAGUGACAGUGCUUCUCUGUGAGAUUAACA,0.0129 ± 0.0023
7,UAGUGACAGUCCUUCUCUGACAGUUUAACA,< 0.0001
8,UAGUGAGUCACGUUCACUGAGAGAUUAACA,0.135 ± 0.0066
9,UAGUGUGUCACCUUCACUGAGACAUUAACA,0.0842 ± 0.018
10,UAGUGAGACACCUUGUCUGAGAGAUUAACA,0.0854 ± 0.012
11,UAGUGAGUCAGCUUCACUGAGAGAUUAACA,0.118 ± 0.0076
12,UAGUGUGUCACCUACUCUGAGAGAUUAUCA,0.239 ± 0.049
13,UAGUGAGUCACUCUUCUCUGAGAGAUUAACA,0.0962 ± 0.0097
14,UAGUGAGUCACCUUCACUCAGAGAUUAACA,0.0352 ± 0.0087
15,UAGUGACAGUCCUUCUCUGAGAGAUUACACA,0.0217 ± 0.0053
16,UAGUGACAGACCUUCUGUGAGAGAUUAAGA,0.0157 ± 0.0075
17,UAGUGACAGUGGUUCUCUGAGAGAUUAACU [g2:g18:cont:t1U],0.00537 ± 0.0016
18,UAGUGACAGUGCUUGCUCUGAGAGAUUAACA,0.0214 ± 0.0029
19,UAGUGACACACCAUCUCUGAGAGAUAAACA,0.0369 ± 0.011
20,UAGUGACAGACGUUCUGUGAGAGAUUAACA,0.0275 ± 0.0072
21,UAGUGAGUCACCUUCUGAGAGAGAUUAAGA,0.016 ± 0.0076
22,UAGUCUGUCACCAUCUCUCAGAGAUUAACA,0.0403 ± 0.0059
23,UAGUGACAGUGCUUCUCUGAGUGAAUAACA,< 0.0001
